Data from PubChem BioAssay AID686978 (National Center for Advancing Translational Sciences (NCATS), 2013).
Hit rate of the full screen: of about 420,000 compounds, about 64,000 (15%) were called active. Inconclusive means that the source gave no clear call. Such entries were picked first, then a sample of the others. Calls come from the whole dose curve; as a rule, active = well fitted inhibition curve with a large enough effect; inconclusive = small, poorly fitted or top-dose-only effect; inactive = flat fitted curve, though single readings scatter. Potencies of inconclusive entries are left out as doubtful fits.
% is set by controls: 0 for no effect and ±100 for the full control effect; potency is the fitted concentration of half-maximal effect; tags give direction and shape of the fitted curve.

Experiment: qHTS for Inhibitors of human tyrosyl-DNA phosphodiesterase 1 (TDP1): qHTS in cells in absence of CPT; note: nearly all actives have a fitted effect of over 55% in size
Conditions: DT40 Tdp1-/- hTDP1 cells, no CPT, ATP luminescence, 48 h; activity change, negative = growth inhibition: at 46.2 µM (top of the series) unless noted
Method in brief: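 Seeded 400 DT40-hTDP1 cells/well (vehicle DMSO, no 20 nM CPT); pinned compounds; ≥48 hr at 37 °C; CellTiter-Glo luminescence as viability measure.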
With `CC(C)(C)OC(=O)C[C@H]1C/C=C\C[C@@H](CC(=O)N[C@H](CO)Cc2ccccc2)C(=O)NC[C@@H](c2ccccc2)OC1=O` the Potency was active: 18.4 µM.
With `CC(C)(C)CC(=O)Nc1nnc(C(F)(F)F)s1` the Potency was “inactive”.
In the case of `Cc1[nH]n(-c2ccccc2)c(=O)c1C(c1cccc([N+](=O)[O-])c1)c1c(C)[nH]n(-c2ccccc2)c1=O`, the Potency was active: 20.6 µM.
For `CC(C)(C(=O)c1ccccc1)/[N+]([O-])=C/c1ccccc1F`, the Potency was “inactive”.
In the case of `O=c1c2ccccc2c(-c2ccc(Br)cc2)nn1Cc1ccccc1`, the Potency was inconclusive [inhibitor, full curve, poor fit].
For `COc1ccccc1NC(=O)c1ccc(-c2ccc(Br)cc2)o1`, the Potency was active: 5.8 µM.
For `CCCNC(=O)Nc1ccsc1C(=O)OC`, the Potency was “inactive”.
For `CCCCNc1c(-c2ccc(OC)c(SC3CCCCC3)c2)nc2cnccn12`, the Potency was inconclusive [inhibitor, single point].
For `CCOC(=O)C1=CN(CC2CCCO2)C=C(C(=O)OCC)C1c1ccccc1C(F)(F)F` (stereo unspecified), the Potency was active: 18.4 µM.
With `COc1ccc(OCc2cc(C(=O)N(C)C3CCOC3)no2)c(Cl)c1` (stereo unspecified) the Potency was inconclusive [inhibitor, single point].
With `O=C(NNC1=Nc2ccccc2SC1)c1ccc(Cl)cc1` the Potency was active: 11.6 µM.
For `COc1ccc(OC)c(-c2nc(CN(C)C(C)c3ccncn3)c(C)o2)c1` (stereo unspecified), the Potency was inconclusive [inhibitor, single point].
For `COc1ccc(-c2cc(C(=O)Oc3ccc(Cl)cc3)c3ccccc3n2)cc1`, the Potency was inconclusive [inhibitor, single point].
For `O=C(CN1CCN(S(=O)(=O)N2CCOCC2)CC1)Nc1cc(Cl)ccc1Cl`, the Potency was inconclusive [inhibitor, single point].
In the case of `N#CCC(=O)N/N=C/c1cn(Cc2ccc(Cl)cc2Cl)c2ccccc12`, the Potency was inconclusive [inhibitor, partial curve, poor fit].
In the case of `CCCCN1C(=O)C(CC(=O)NCCc2ccccn2)CC(C(=O)N(C(C)C)C(C)C)=C1C` (stereo unspecified), the Potency was inconclusive [inhibitor, full curve, poor fit].
In the case of `CC1(C)Oc2ccc3ccc(=O)oc3c2/C(=C/Nc2ccc(O)cc2)C1=O`, the Potency was inconclusive [inhibitor, partial curve].
With `Nc1nc2[nH]c(=S)[nH]c2c(=O)[nH]1` the Potency was “inactive”.
With `Cn1c(NCc2cccnc2)nc2c1c(=O)n(Cc1ccccc1F)c(=O)n2C` the Potency was inconclusive [inhibitor, single point].
For `CN1CCN(C(=O)COCc2cc(-c3ccc4c(c3)OCO4)on2)CC1`, the Potency was “inactive”.
For `COC(=O)COc1ccc(/C=N/NC(=O)CN(c2ccccc2OC)S(=O)(=O)c2ccccc2)cc1`, the Potency was inconclusive [inhibitor, partial curve].
For `CN1CCN(CCCNC(=O)c2ccc3c(=O)n(CCc4ccccc4)c(=O)[nH]c3c2)CC1`, the Potency was inconclusive [inhibitor, partial curve, poor fit].
In the case of `Cn1c(CCNC(=O)c2cccs2)n[nH]c1=S`, the Potency was “inactive”.
For `CCCCn1cnc2cc(NC(=O)c3cc(OC)c(OC)c(OC)c3)ccc21`, the Potency was inconclusive [inhibitor, single point].
For `O=C(NCc1ccccc1)c1cc(C2COCCN2C(=O)c2ccccc2)on1` (stereo unspecified), the Potency was “inactive”.
For `COc1ccc(CC(=O)N/N=C/c2ccc(-c3ccc(F)cc3)o2)cc1OC`, the Potency was inconclusive [inhibitor, single point].
With `Cc1cc(N2CCC(C)CC2)nc2cccc(O)c12` the Potency was inconclusive [inhibitor, single point].
With `CCOc1ncc(S(=O)(=O)N2CCN(CC)CC2)cc1C(=O)O` the Potency was “inactive”.
In the case of `CC(C)CC(=O)Nc1nc2ccc(S(=O)(=O)N3CCOCC3)cc2s1`, the Potency was active: 20.6 µM.
With `Cc1ccc(Nc2cc(-c3ccccc3)nc3ncnn23)cc1` the Potency was inconclusive [inhibitor, partial curve].
For `COc1ccc(CC(=O)N2CC3(C)CC2CC(C)(C)C3)cc1` (stereo unspecified), the Potency was inconclusive [inhibitor, single point].
With `CCc1cccc(C)c1NC(=O)CCN1C(=O)NC(C)(C)C1=O` the Potency was “inactive”.
With `COc1cc2c(cc1OC)-c1nnnn1C(C)(C)C2` the Potency was “inactive”.
With `COc1ccccc1-c1nnc(SC/C(O)=C(\C#N)c2nc3ccccc3[nH]2)n1C1CCCCC1` the Potency was inconclusive [inhibitor, single point].
With `CC1CCN(CCCNC(=O)c2ccc3c(=O)n(Cc4ccc(Cl)cc4)c(=S)[nH]c3c2)CC1` the Potency was inconclusive [inhibitor, single point].
In the case of `Cc1nc(C(=O)Nc2ccccc2)sc1C(=O)Nc1ccccc1`, the Potency was inconclusive [inhibitor, single point].
In the case of `O=C(O)C1C2CCCCC2=C2CCCCC2C1C(=O)Nc1nccs1` (stereo unspecified), the Potency was “inactive”.
For `COc1ccc(NC(=O)c2cccc3c(Br)cccc23)cc1`, the Potency was inconclusive [inhibitor, partial curve].
In the case of `O=C(CCc1ccccc1)Nc1ccc(F)c([N+](=O)[O-])c1`, the Potency was “inactive”.
With `Cc1cc(Nc2ccccc2)n(C(=O)c2ccc(N)cc2)n1` the Potency was “inactive”.
In the case of `COC(=O)c1cc(Br)ccc1NC(=O)CCNC(=O)c1ccco1`, the activity change, negative = growth inhibition was inconclusive: -36.5% [inhibitor].
For `COc1ccc(NC(=O)CS(=O)(=O)c2cccc(Cl)c2)cc1`, the Potency was active: 23.1 µM.
With `CC(C)(C)OC(=O)NNc1c2ccccc2nc2ccccc12` the Potency was active: 13 µM.
For `Cc1ccc(S(=O)(=O)N2CCC(C(=O)NNC(=O)c3ccc(F)cc3)CC2)cc1`, the Potency was “inactive”.
With `CN(c1ncnc(N)c1[N+](=O)[O-])C1CCCCC1` the Potency was inconclusive [inhibitor, partial curve, poor fit].
For `CCCN(Cc1ccccc1)C(=S)Nc1ccc(SC(F)F)cc1`, the activity change, negative = growth inhibition was inconclusive: -33.3% [inhibitor].
For `O=C(COC(=O)/C=C/c1cccc(Cl)c1)NCc1cccs1`, the Potency was “inactive”.
With `CCOc1ccc(C(C)NC(=O)c2ccccc2OCc2c(C)noc2C)cc1OCC` (stereo unspecified) the Potency was inconclusive [inhibitor, single point].
For `COc1ccc2cc(CCNC(=O)c3cccc([N+](=O)[O-])c3)c(=O)[nH]c2c1`, the Potency was inconclusive [inhibitor, single point].
In the case of `O=C(NC1CCCC1)C(c1ccccc1)n1c(-c2cccc3ccccc23)nc2ccccc21` (stereo unspecified), the Potency was inconclusive [inhibitor, single point].
For `CN(C)S(=O)(=O)c1cccc(C(=O)Nc2cccnc2)c1`, the Potency was “inactive”.
With `COc1ccc2nc(NC(=O)c3ccc(-n4nc(C)cc4C)cc3)sc2c1` the Potency was “inactive”.
For `S=c1nc(-c2ccccn2)c(-c2ccccn2)n[nH]1`, the Potency was inconclusive [inhibitor, single point].
For `CC(=O)Nc1cnc(-c2ccc(O)cc2C)cn1`, the Potency was inconclusive [inhibitor, single point].
For `Cc1c(C(=O)NCc2ccc3c(c2)OCCO3)sc(=O)n1Cc1ccc(C(=O)N(C)C)cc1`, the Potency was inconclusive [inhibitor, single point].
In the case of `COC(C[C@@H](O)C[C@@H](O)[C@H](C)OCc1ccccc1)OC`, the Potency was “inactive”.
With `N/C(=N\OC(=O)Cc1cccc2ccccc12)c1ccccn1` the Potency was inconclusive [inhibitor, single point].
With `S=c1ncc2[nH]c(=S)[nH]c2[nH]1` the Potency was inconclusive [inhibitor, partial curve, poor fit].
For `COc1cc(Cn2c3ccc(NC(=O)NCc4ccc(F)cc4)cc3c(=O)n2C)ccc1F`, the Potency was active: 5.17 µM.
For `COc1cccc(NC(=O)c2sc(-n3nc(C)c(Cc4ccccc4Cl)c3C)nc2C)c1`, the Potency was inconclusive [inhibitor, full curve, poor fit].
In the case of `O=C(Nc1ccc(C(=O)N2CCN(c3ccncc3)CC2)cc1)c1ccc(Br)o1`, the Potency was inconclusive [inhibitor, single point].
In the case of `CC(C)c1ccc(/C=C/C(=O)CCC(=O)O)cc1`, the Potency was “inactive”.
In the case of `COc1ccc(S(=O)(=O)N2CCCOC2CNC(=O)C(=O)NCCc2ccco2)cc1C` (stereo unspecified), the Potency was active: 7.31 µM.
In the case of `COc1ccc(OC)c(-n2c(=O)[nH]c3cc(C(=O)NCCc4ccc(OC)c(OC)c4)ccc3c2=O)c1`, the Potency was inconclusive [inhibitor, partial curve].
For `O=C(COc1ccc2c(c1)CCC2)N1CCN(c2cccc(C(F)(F)F)c2)CC1`, the Potency was inconclusive [inhibitor, single point].
In the case of `CC(C)(C)c1ccc(OCc2ccc(C(=O)N/N=C3\CC4CC=CC34)cc2)cc1` (stereo unspecified), the Potency was active: 14.6 µM.
With `Cc1ccnn1CC(=O)N1CCOc2c(cc(-c3csc4ccccc34)cc2OC2CCOC2)C1` (stereo unspecified) the Potency was inconclusive [inhibitor, partial curve, poor fit].
In the case of `Cc1ccccc1NC(=O)c1ccc(NC(=O)N2CCSc3ncccc32)cc1`, the Potency was inconclusive [inhibitor, single point].
In the case of `COc1ccc([C@H]2CC(=O)C=C(c3cccc(OCc4ccccc4)c3)C2)cc1`, the Potency was inconclusive [inhibitor, partial curve, poor fit].
In the case of `Nc1ccn([C@@H]2O[C@H](CNCc3cc(Cl)ccc3OCc3ccc(Cl)cc3)[C@@H](O)[C@H]2O)c(=O)n1`, the Potency was “inactive”.
For `Cc1ccc(NC(=O)CCN2CCN(C/C=C/c3ccccc3)CC2)cc1`, the Potency was inconclusive [inhibitor, single point].
